{
  "source": "patent US10501518B2",
  "about": "(priority 2013, dated 2019)",
  "key": {"PTHR": {"molecular_target": "T1, PTHR (Homo sapiens, UniProt Q03431)", "T1 construct": "expressed in transfected cells", "T1 sequence (Q03431 27-593)": "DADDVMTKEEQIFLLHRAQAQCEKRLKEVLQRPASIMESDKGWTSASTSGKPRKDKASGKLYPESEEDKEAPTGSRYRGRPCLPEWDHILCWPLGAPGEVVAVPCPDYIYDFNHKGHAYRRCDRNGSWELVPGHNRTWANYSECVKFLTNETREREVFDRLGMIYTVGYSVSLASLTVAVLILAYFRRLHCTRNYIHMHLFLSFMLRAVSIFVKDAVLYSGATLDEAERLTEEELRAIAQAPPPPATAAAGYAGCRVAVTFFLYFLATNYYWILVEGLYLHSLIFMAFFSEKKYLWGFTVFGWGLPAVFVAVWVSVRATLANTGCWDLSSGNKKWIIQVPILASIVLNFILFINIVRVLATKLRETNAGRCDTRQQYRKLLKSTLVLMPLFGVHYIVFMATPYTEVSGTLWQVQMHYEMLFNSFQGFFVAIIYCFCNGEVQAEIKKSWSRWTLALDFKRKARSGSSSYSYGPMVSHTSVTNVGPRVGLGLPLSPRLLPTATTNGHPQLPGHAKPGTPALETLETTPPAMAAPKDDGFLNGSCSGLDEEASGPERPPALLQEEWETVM", "test": "cAMP induction potency, N-terminal modifications and cyclic constraints (Tables 9, 10, 13)", "type": "cell-based", "settings": "Table 10"}, "[1]": {"test": "Calcemic response in mice after subcutaneous injection", "type": "in vivo", "settings": "20 nmol/kg", "method": "Compound concentrations were determined by submitting plasma to a cAMP GloSensor assay, quantification of luminescence readout, and conversion to peptide concentration via standard curve. […] See also FIGS. 12A, 12B and 12C.\nMice (C57BL/6, male, age 9-12 weeks) were treated in accordance with the ethical guidelines adopted by Massachusetts General Hospital. […] Blood was withdrawn just prior to injection (t=0) or at times thereafter. Tail vein blood was collected and immediately used for analysis. Blood Ca^2+ concentration was measured with a Chiron Diagnostics model 634 Ca^2+/pH analyzer."}},
  "note": "Not every detail of the peptide structures is certain; ends, links or a residue may be inferred. Starred links: 1 amine or outer side, 2 acyl side, 3 side chain; linkers in the order of their positions; H or OH if unused. Non-standard residues stand in square brackets, D forms with d. Residues, ends and D or L forms follow the SMILES beside them. *: point of attachment. NH(1S,2S-2-CONH2-cPent) = NC(=O)[C@H]1CCC[C@@H]1N*; X12 = O=C([C@H]1CCC[C@@H]1N[*:1])[*:2]; X13 = O=C([C@H]1CNC[C@@H]1N[*:1])[*:2]; ACPC(1S,2S) = N[C@H]1CCC[C@@H]1C(=O)*; hArg = N=C(N)NCCCC[C@H](N)C(=O)O; Aib = CC(C)(N)C(=O)O",
  "data": [
    {"smiles": "CSCC[C@H](NC(=O)[C@H]1CCC[C@@H]1NC(=O)[C@H](CCC(N)=O)NC(=O)[C@H]1CCC[C@@H]1NC(=O)[C@H](CCC(=O)O)NC(=O)C(C)(C)NC(=O)[C@@H](NC(=O)[C@H]1CCC[C@@H]1N)C(C)C)C(=O)N[C@@H](Cc1c[nH]cn1)C(=O)N[C@@H](CCC(N)=O)C(=O)N[C@@H](CCCCNC(=N)N)C(=O)N[C@@H](C)C(=O)N[C@@H](CCCCN)C(=O)N[C@H]1CCC[C@@H]1C(=O)N[C@@H](CC(C)C)C(=O)N[C@@H](CC(N)=O)C(=O)N[C@@H](CO)C(=O)N[C@H]1CCC[C@@H]1C(=O)N[C@@H](CCCNC(=N)N)C(=O)N[C@@H](CCCNC(=N)N)C(=O)N[C@H](C(=O)N[C@H]1CNC[C@@H]1C(=O)N[C@@H](Cc1c[nH]c2ccccc12)C(=O)N[C@@H](CC(C)C)C(=O)N[C@@H](CCCNC(=N)N)C(=O)N[C@H]1CNC[C@@H]1C(=O)N[C@@H](CCCCN)C(=O)N[C@@H](CC(C)C)C(=O)N[C@@H](CCC(N)=O)C(=O)N[C@H]1CCC[C@@H]1C(=O)N[C@H](C(=O)N[C@@H](Cc1c[nH]cn1)C(=O)N[C@@H](CC(N)=O)C(=O)N[C@H]1CCC[C@@H]1C(N)=O)C(C)C)C(C)C", "note": "[M-X1,5,7-FcycD6, XVUEXQXMHQ^hRAKXLNSXRRVZWLRZKLQXVHNX--NH2] ({ACPC(1S,2S)}-V[Aib]E[X12]Q[X12]MHQ[hArg]AK[X12]LNS[X12]RRV[X13]WLR[X13]KLQ[X12]VHN-{NH(1S,2S-2-CONH2-cPent)})", "values": [
      {"measurement": "Fold PTH", "setting": "PTHR", "result": 9.5},
      {"measurement": "calcemic response (blood Ca^2+ concentration)", "setting": "[1]", "result": "very marked activity to increase calcium blood levels"}
    ]}
  ]
}
